Source: PubChem BioAssay AID1963576 (National Center for Advancing Translational Sciences (NCATS), 2024)
The whole screen tested about 46,000 compounds, of which about 60 (0.1%) were called active. About 3% were inconclusive and are not listed. Calls come from the whole dose curve; as a rule, active = well fitted inhibition curve with a large enough effect; inconclusive = small, poorly fitted or top-dose-only effect; inactive = no such curve, though single readings can be large or run the other way. Some of the results follow.

Assay: Primary qHTS assay for Inhibitors of ovarian cancer metastasis using an organotypic tumor microenvironment (TME) model.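 For activity change, negative = inhibition: plate controls were DMSO wells for no effect and tomatine positive control wells for full effect.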 Note: nearly all actives have a fitted effect of over 65% in size.
Conditions: SKOV3ip1-GFP adhesion/invasion on 3D omental model, fluorescence; series mostly up to 45.8 µM; activity change, negative = inhibition: at the top concentration
Summary of the method: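 Adhesion/invasion was scored as fixed GFP-labeled SKOV3ip1 cell counts (488/509 nm), normalized to DMSO and tomatine controls. Cancer cells in serum-free medium, with four compound doses (0.36-46 umol/L), sat 2 hr at RT then 16 hr at 37 C on a 48 hr fibroblast/mesothelial/ECM culture.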

Activity change, negative = inhibition, inactive:
CCCCNS(=O)(=O)c1ccc2nc(-c3cccnc3)cc(C(=O)NCCC)c2c1 -5.88%, CCn1cc(S(=O)(=O)c2ccc(OC)cc2)c(=O)c2cc(F)c(N3CCC(C)CC3)cc21 -7.34%, CNCCCC12CCC(c3ccccc31)c1ccccc12 -23.9%, CCc1c(O)cc(O)c(C(=O)c2ccc(OCCN3CCOCC3)c(OC)c2)c1CC(=O)N(CCOC)CCOC 14.3%, CCOc1ccc(CNC(=O)C2CCN(S(=O)(=O)N3CCCCC3)CC2)cc1 -5.09%, COCCCNC(=O)c1ccc2nc(Cc3ccc(OC)cc3)oc2c1 27%, CCCc1nn2c(=O)cc(COC(=O)c3cccc(NC(=O)CCc4ccccc4)c3)nc2s1 -1.67%, NCCCCCc1nnc(SCc2ccc(F)cc2)o1 -4.51%, COc1ccc(NC(=O)CSc2nc3ccccc3[nH]2)cc1 5.03%, Fc1ccccc1Oc1ncnc2c1oc1ccccc12 2.05%, CCCCSc1nnc2n(-c3cccc(C)c3)c(=O)c3c4c(sc3n12)CCCC4 -13.6%, COc1ccc(NC(=O)COCc2cc(-c3ccco3)on2)cc1 -4.51%, CC(=O)Nc1nonc1-c1nnc(SCc2ccc(F)cc2)n1C 0.451%, Cc1c(CC(=O)NCc2ccccc2)c(=O)oc2c(C)c(O)ccc12 -3.18%, COc1cc2c(=O)c(C(=O)c3ccc(C)c(C)c3)cn(Cc3ccccc3)c2cc1OC 33.4%, Cc1ccc(NC(=O)CSCn2nnc3c(=O)[nH]c(Cc4ccc(F)cc4)nc32)c(C)c1 -0.655%, CCCCC(CC)CNC(=O)CCCc1nnc2n(CCC)c(=O)c3sccc3n12 (stereo not drawn) 1.93%, CCOCCCNC(=O)Cn1nc(C)n2c(cc3cc(C)ccc32)c1=O 8.98%, Cc1coc2c1C(=O)C(=O)c1c-2ccc2c1CCCC2(C)C 7.37%, Cc1cn2cc(C(=O)N(C)CCO)cc(N[C@@H]3CCOc4cccc(C)c43)c2n1 2.99%, CCOc1cc(C2C(C(=O)OC)=C(C)NC3=C2C(=O)c2ccccc23)c(Br)cc1OC (stereo not drawn) -15.5%, O=C(COc1ccccc1Cl)Nc1nc2c(s1)CCCC2 -10.1%, CCCCN(CCCNC(=O)CN1N=C(c2ccccc2)CCC1=O)c1ccccc1 19.2%, COc1cccc2cc(-c3nc(C4CCC(C(=O)O)CC4)n4ncnc(N)c34)[nH]c12 (stereo not drawn) -10.7%, COc1ncnc(NS(=O)(=O)c2ccc(N)cc2)c1OC 4.57%, Fc1ccc(CNCCCSc2nnnn2-c2ccccc2)cc1 2.7%, COc1ccc(Cn2c(C(=O)O)c(CNCc3ccc(OC)cc3OC)c3ccc(C)cc32)cc1 1.16%, COc1cc(Cl)c(C)cc1NC(=O)CC1Oc2ccccc2NC1=O (stereo not drawn) -17.1%, CN(C(=O)CSc1nc2ccc(NC(=O)c3cccc(F)c3)cc2s1)c1ccccc1 -13.9%, CCNC(=O)CCCN1C(=O)CCn2nc(-c3cccn3C)cc21 -4.98%, COc1ccc(NC(=O)c2c(NCc3ccc(C)o3)sc3c2CCCCC3)c(OC)c1 -10.2%, CCn1cc(C(=O)NCCc2ccc(Cl)cc2)c(=O)c2cc(S(=O)(=O)N(C)C3CCCCC3)ccc21 -16.6%, CCC(Sc1nc2nccnc2c(=O)n1Cc1ccccc1Cl)C(=O)NC1CCCCC1 (stereo not drawn) 2.62%, COc1ccc2c(C)c(CCC(=O)NCc3cccc(Cl)c3)c(=O)oc2c1 3.56%, Cc1ccc(-c2csc(-c3c(N)c(C(=O)c4ccc5c(c4)OCO5)n4ccccc34)n2)cc1C -4.14%, COc1ccc(CCNC(=O)c2cc3c(=O)n4cccc(C)c4nc3n2C)cc1 1.14%, CCOc1ccc(C2C(=O)N(C3CCCCCC3)CC(=O)N2Cc2ccc(C)cc2)cc1OC (stereo not drawn) -4.86%, Cc1cccc(N(CC(=O)NCCc2ccccc2)S(=O)(=O)c2ccccc2)c1C 9.2%, COc1cc2c(cc1OC)C(COc1ccc3c(C)cc(=O)oc3c1)N(C(=O)Cc1ccc(F)cc1)CC2 (stereo not drawn) 0.673%, Cc1cc(C)cc(-n2ccn(CC(=O)NCCc3ccccc3)c(=O)c2=O)c1 0.239%, Cc1ccc2c(c1)N(CC(=O)Nc1ccccc1C(F)(F)F)C(=O)c1cccnc1O2 -7.42%, COc1ccc(Cn2ccnc2SCC(=O)Nc2ccc3c(c2)OCCO3)cc1 -3.68%, COc1cccc(C(=O)N(Cc2cccc(F)c2)C2CCS(=O)(=O)C2)c1 (stereo not drawn) -8.73%, CCOc1ccc(N(CC(=O)NCc2ccc(OC)cc2)S(=O)(=O)c2c(C)[nH]c(=O)[nH]c2=O)cc1 -4.03%, O=C(Nc1cccc(F)c1)c1ccc2oc(=O)n(Cc3ccccc3)c2c1 -5.74%, COc1cccc(OC)c1C(=O)Nc1ccc(-c2nc3ncccc3o2)cc1 5.42%, Cc1ccccc1C(=O)c1ccc(Nc2ccc(Br)cc2N)cc1Cl -7.11%, Cc1ccc(CNC(=O)CCS(=O)(=O)c2cc3c4c(c2)CCN4C(=O)CC3)cc1 9.84%, CCc1ccc(NC(=O)CSc2nc3c([nH]c4ccccc43)c(=O)n2-c2ccc(C)cc2)cc1 -5.02%, Cc1ccc(C2CC(=O)n3nc(-c4ccc(Cl)cc4)nc3S2)cc1 (stereo not drawn) -9.18%, Cc1ccc(Sc2ccc(N3CCC(C(=O)Nc4cc(C)cc(C)c4)CC3)nn2)cc1 -4%, COc1ccc(C(=O)CC(=O)c2ccc(C(C)(C)C)cc2)cc1 6.28%, O=C(NCc1ccccc1)c1ccc2c(c1)N(Cc1ccccc1F)C(=O)c1ccccc1S2=O (stereo not drawn) 2.18%, O=C(Cn1c(=O)n(-c2ccccc2)c(=O)c2c3c(sc21)CCC3)c1ccc(F)cc1 -8.98%, Cc1c(Cl)cccc1-n1ncc(C(=O)NCCN2CCN(C)CC2)c1C1CCN(C(=O)OC(C)(C)C)CC1 -2.31%, COc1cccc(CN(C(=O)COc2ccc(Cl)c(C)c2)C2CCS(=O)(=O)C2)c1 (stereo not drawn) 16%, Cc1ccccc1NC(=O)NCCc1c[nH]c2ccccc12 -2.33%, O=C(Nc1ccccc1)c1cnc(N2CCCCC2)c2ccccc12 -5.52%, COc1cccc(CN2C(=O)c3ccccc3Sc3ccc(C(=O)NCc4ccccc4)cc32)c1 27.9%, COc1ccccc1C(=O)Nc1c(C(=O)Nc2cc(Cl)ccc2C)sc2nc(C)cc(C)c12 51.7%, COc1cccc(N2CCN(C(=O)c3cnc4c(-c5ccccc5)c(C)nn4c3C)CC2)c1 4.97%, Cc1ccc(NC(=O)c2ccc(NC(=O)N3CCSc4ncccc43)cc2)c(Cl)c1 -7.68%, COc1ccc(OC)c(NC(=O)c2c(NCc3cccs3)sc3c2CCCCC3)c1 -6.01%, COc1ccc(-c2ccc(NS(=O)(=O)c3ccc(NC(C)=O)cc3)cc2)nn1 9.42%, CCc1ccccc1NC(=O)CN(C)S(=O)(=O)c1cccc2nsnc12 0.731%, COc1ccc(CCNC(=O)c2cnn(-c3ccc(F)cc3)c2C2CCN(C(=O)OC(C)(C)C)CC2)cc1OC 0.411%, COc1ccc(N2CCN(C(=O)c3cc4c(=O)n(Cc5cccnc5)ccc4nc3C)CC2)cc1 5.95%, COc1ccc(NC(=O)c2oc3ccc(S(=O)(=O)N4CCOCC4)cc3c2C)c(OC)c1 11.4%

outcome, inactive:
CCCN(CCC)CCCNC(=O)C1CCC(CNS(=O)(=O)c2cccc3nsnc23)CC1 (stereo not drawn), Cc1ccc(CN(Cc2ccco2)C(=O)COc2c(C)cc(C)cc2C)cc1, Cc1ccc2nc(COc3ccc(NC(=O)COc4ccccc4F)cc3)cc(=O)n2c1, CCOC(=O)C1CCN(C(=O)CSc2n[nH]c(-c3ccccc3)n2)CC1, Cc1cccc(OCc2nc(C#N)c(NCc3ccccc3Cl)o2)c1, Clc1ccc(-c2csc(=Nc3ccccc3)n2Cc2ccc3c(c2)OCO3)cc1, COc1ccc(-c2cc3nc(C)c(CCC(=O)N4CCN(c5ccccc5)CC4)c(C)n3n2)c(OC)c1, Cc1cc(C)c2nc(NC(=O)c3ccc(S(=O)(=O)N4CCCC4)cc3)sc2c1, Cc1ccc(C)c(N2CCN(C(=O)Cn3c(=O)c4cccn4c4ccc(F)cc43)CC2)c1, COc1ccc(CCCc2nnc(SCC(=O)Nc3cc(F)ccc3C)o2)cc1, COc1ccc(NC(=O)CSCc2cc(=O)c3cc(C)ccc3[nH]2)cc1, CCOc1ccc(CNC(=O)c2ccc3c(Cl)c4c(nc3c2)CCCC4)cc1, CCn1c(=O)c2cc(C(=O)Nc3cccc(C(F)(F)F)c3)sc2c2ccccc21, COc1ccc(C(=O)Nc2ccc(-c3nc4ncccc4o3)cc2C)cc1Br, Cc1ccc2nc(NCc3ccccc3)c3nncn3c2c1, Cc1ccc(CNC(=O)CSCc2ccccc2C)cc1, COc1ccc(-n2c(/C=C/c3cccc4ccccc34)nc3ccccc3c2=O)cc1OC, O=S(=O)(c1ccc(C2CCCCC2)cc1)N1CCN(c2cc(Cl)ccc2Cl)CC1, CCC(CC)C(=O)Nc1nnc(S(=O)(=O)N(C)c2cc(C)cc(C)c2)s1, Cc1cccc(CSCCNC(=O)C2CCN(S(=O)(=O)Cc3ccccc3)CC2)c1, COc1ccc(NC(=O)CC2Oc3ccc(C)cc3NC2=O)cc1Cl (stereo not drawn), CCOC(=O)c1c(NC(C)=O)c2c3c(sc2n1Cc1c(C)cc(C)cc1C)CCCC3, CCOC(=O)c1cc2c(=O)n3ccccc3nc2n(Cc2ccco2)c1=NC(=O)c1ccc(C(C)(C)C)cc1, Cc1c(Cl)cccc1NC(=O)c1oc2ccc(S(=O)(=O)N3CCCCCC3)cc2c1C, COc1ccc(-c2cc(C)no2)cc1S(=O)(=O)N1CCN(c2cccc(C)c2)C(C)C1 (stereo not drawn), CCN(CC)c1cc(C)c2cc(NC(=O)c3ccc(OC)c(OC)c3)ccc2n1, Cc1nc(SCC(=O)N2CCN(c3ccccc3)CC2)[nH]c(=O)c1C, COc1cccc2cc(C(=O)N3CCN(c4cc(C)ccc4C)CC3)c(=O)oc12, CCN(CC)c1ccc(NC(=O)c2c(C)nn(-c3ccc(F)cc3)c2-n2cccc2)c(C)c1, O=C(CN1C(=O)C2(SCC(=O)N2c2ccc(F)c(F)c2)c2ccccc21)NCCc1ccccc1 (stereo not drawn)
